Reference: publication PMC4582193
No constants are given. Whether binding was seen depends on the method and setting. Binding seen in cells or lysates may run through a third protein. Some entries that bind do so weakly or less than the wild type. For part of these data: Tags and fused reporters may be left off the sequences shown.

Assays:
[1] = target: T1, Myc–Cep85 mutant containing amino acids 257–433 alone (human) (UniProt Q6P2H3); assay: co-IP; Myc–Cep85 constructs and HA–Nek2A constructs co-expressed in HEK293T cells; lysis in 50 mM Tris-HCl pH 7.4, 150 mM NaCl, 1 mM EDTA, 0.5% NP-40; antibody 2 h at 4°C, Protein A/G PLUS-Agarose; western blotting
T1 sequence: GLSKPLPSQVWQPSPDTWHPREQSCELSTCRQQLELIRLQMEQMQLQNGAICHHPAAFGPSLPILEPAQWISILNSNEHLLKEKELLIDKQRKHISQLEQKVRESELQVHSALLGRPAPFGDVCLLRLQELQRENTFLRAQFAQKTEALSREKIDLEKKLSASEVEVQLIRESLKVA

[2] = target: T2, Myc–Cep85 internal deletion mutant M23 (human) (UniProt Q6P2H3); assay: as above
T2 sequence: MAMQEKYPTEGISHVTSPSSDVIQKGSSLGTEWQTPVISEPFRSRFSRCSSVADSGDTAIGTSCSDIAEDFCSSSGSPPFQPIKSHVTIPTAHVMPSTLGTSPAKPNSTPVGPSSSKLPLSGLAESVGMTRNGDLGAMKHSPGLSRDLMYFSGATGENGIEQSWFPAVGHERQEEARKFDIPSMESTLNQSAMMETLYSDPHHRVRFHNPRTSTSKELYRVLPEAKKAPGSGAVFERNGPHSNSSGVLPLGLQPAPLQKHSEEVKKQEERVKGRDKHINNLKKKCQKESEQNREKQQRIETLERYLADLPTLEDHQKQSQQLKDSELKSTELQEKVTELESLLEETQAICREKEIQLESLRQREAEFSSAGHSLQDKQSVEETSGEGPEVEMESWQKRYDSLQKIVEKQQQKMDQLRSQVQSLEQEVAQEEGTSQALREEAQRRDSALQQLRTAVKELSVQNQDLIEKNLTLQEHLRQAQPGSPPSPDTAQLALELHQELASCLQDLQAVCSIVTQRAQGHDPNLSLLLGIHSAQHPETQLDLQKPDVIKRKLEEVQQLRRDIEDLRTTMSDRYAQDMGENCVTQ

Myc-tagged Cep85 (human) = target: T3, Myc-tagged Cep85 (human) (UniProt Q6P2H3); assay: as above
T3 sequence: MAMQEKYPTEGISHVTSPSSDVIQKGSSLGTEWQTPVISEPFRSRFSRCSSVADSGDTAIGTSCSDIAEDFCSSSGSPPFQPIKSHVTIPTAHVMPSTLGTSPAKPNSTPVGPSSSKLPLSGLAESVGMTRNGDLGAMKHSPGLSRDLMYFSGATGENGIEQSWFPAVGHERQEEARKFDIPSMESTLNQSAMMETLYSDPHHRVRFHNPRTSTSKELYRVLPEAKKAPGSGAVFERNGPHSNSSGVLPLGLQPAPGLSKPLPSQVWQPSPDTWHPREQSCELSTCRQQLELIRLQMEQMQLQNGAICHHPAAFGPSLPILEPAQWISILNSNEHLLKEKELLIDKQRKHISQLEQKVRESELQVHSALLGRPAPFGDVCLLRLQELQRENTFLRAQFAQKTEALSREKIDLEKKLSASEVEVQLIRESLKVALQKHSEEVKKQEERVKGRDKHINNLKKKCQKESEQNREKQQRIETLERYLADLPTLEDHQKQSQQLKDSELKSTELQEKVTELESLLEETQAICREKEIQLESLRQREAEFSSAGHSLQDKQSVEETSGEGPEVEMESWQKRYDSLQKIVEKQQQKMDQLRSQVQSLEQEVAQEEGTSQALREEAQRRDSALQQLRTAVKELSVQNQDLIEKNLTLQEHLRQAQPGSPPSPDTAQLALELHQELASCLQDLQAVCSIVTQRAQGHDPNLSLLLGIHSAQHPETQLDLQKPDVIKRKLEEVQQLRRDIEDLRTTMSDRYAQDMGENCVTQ

[3] = target: T4, GST fusion Cep85 protein (human) (UniProt Q6P2H3); assay: pull-down; GST–Cep85 expressed in and purified from E. coli as bait; HA–Nek2A overexpressed in HEK293T cells; only the target purified
T4 sequence: T3 sequence

[4] = target: T5, centrosomal protein 85 kDa (Cep85), endogenous in HEK293T (human (endogenous in HEK293T)) (UniProt Q6P2H3); assay: co-IP; endogenous Cep85 in HEK293T cell lysate immunoprecipitated with anti-Cep85 antibody; Nek2A detected with anti-Nek2A antibody
T5 sequence: T3 sequence

[5] = target: T6, Cep85, endogenous in U2OS (human (endogenous in U2OS)) (UniProt Q6P2H3); assay: co-IP; endogenous Cep85 in U2OS cell lysate immunoprecipitated with anti-Cep85 antibody; Nek2A detected with anti-Nek2A antibody
T6 sequence: T3 sequence

B1: HA-tagged Nek2A (enzyme, UniProt P51955-1 1-445)
chain: MPSRAEDYEVLYTIGTGSYGRCQKIRRKSDGKILVWKELDYGSMTEAEKQMLVSEVNLLRELKHPNIVRYYDRIIDRTNTTLYIVMEYCEGGDLASVITKGTKERQYLDEEFVLRVMTQLTLALKECHRRSDGGHTVLHRDLKPANVFLDGKQNVKLGDFGLARILNHDTSFAKTFVGTPYYMSPEQMNRMSYNEKSDIWSLGCLLYELCALMPPFTAFSQKELAGKIREGKFRRIPYRYSDELNEIITRMLNLKDYHRPSVEEILENPLIADLVADEQRRNLERRGRQLGEPEKSQDSSPVLSELKLKEIQLQERERALKAREERLEQKEQELCVRERLAEDKLARAENLLKNYSLLKERKFLSLASNPELLNLPSSVIKKKVHFSGESKENIMRSENSESQLTSKSKCKDLKKRLHAAQLRAQALSDIEKNYQLKSRQILGMR
B1 was tested. Which binding [1] did it give?
Its binding is “binds”.

What about the binding [2] of the same binder?
Its binding is “no binding”.

And the binding (Myc-tagged Cep85 (human))?
The binding was “binds”.

And the binding [3]?
Its binding is “binds”.

B2: Nek2A, endogenous in HEK293T (enzyme, UniProt P51955-1 1-445)
chain: B1 chain
How did the binding [4] turn out when B2 was run?
Its binding is “binds”.

B3: Nek2A, endogenous in U2OS (enzyme, UniProt P51955-1 1-445)
chain: B1 chain
For B3, which binding [5] is on record?
The binding was “binds”.
